Measured values reported in PubChem BioAssay AID360 (National Center for Advancing Translational Sciences (NCATS), 2006).
In all, about 48,000 compounds went through this assay and about 550 (1.1%) were called active. Not shown: some 4% with an inconclusive outcome. No stated cut-off is given here; in the data, active means potency below about 15 µM; inconclusive means mostly about 16 µM to 33 µM; inactive means weaker than that. The list shows a part of the results.

Biological target: Lysosomal acid glucosylceramidase (Homo sapiens) (UniProt P04062)
Sequence of UniProt P04062 (P04062 whole entry, looked up): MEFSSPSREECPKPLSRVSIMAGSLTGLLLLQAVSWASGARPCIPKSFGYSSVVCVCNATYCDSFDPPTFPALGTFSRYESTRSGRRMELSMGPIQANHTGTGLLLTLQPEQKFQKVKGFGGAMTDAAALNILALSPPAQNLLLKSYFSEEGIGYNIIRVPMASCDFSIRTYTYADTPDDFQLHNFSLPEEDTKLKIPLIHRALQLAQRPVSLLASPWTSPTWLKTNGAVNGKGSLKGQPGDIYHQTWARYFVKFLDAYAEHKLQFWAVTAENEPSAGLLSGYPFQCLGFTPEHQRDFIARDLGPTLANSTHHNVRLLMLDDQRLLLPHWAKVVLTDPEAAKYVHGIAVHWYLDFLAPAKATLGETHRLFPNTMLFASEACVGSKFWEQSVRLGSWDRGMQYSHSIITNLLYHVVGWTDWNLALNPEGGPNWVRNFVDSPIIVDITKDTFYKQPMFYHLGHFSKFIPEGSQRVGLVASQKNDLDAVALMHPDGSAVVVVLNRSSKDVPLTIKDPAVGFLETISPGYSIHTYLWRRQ
Test: Glucocerebrosidase;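 further: the screen sought inhibitors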
Conditions: purified enzyme, resorufin glucoside fluorescence (screen aimed at inhibitors), 20 min
In short: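 Wild-type enzyme at 0.2 nM final in 50mM citric acid/KH2PO4, 10mM sodium taurocholate, 0.01% tween-20, pH 5.9, with resorufin beta-D-glucopyranoside at 30 uM final. Compounds titrated, 20 min at RT, red fluorescence read; AC50 from titration.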
Potency means the concentration at half of the fitted maximal effect.

SMILES	Potency
CC(NC(=O)c1ccccc1)c1nc2ccccc2n1Cc1ccc(C#N)cc1 (stereo not given)	inactive: > 76.9 µM
Cc1cc2cc(CCNS(C)(=O)=O)c(=O)[nH]c2cc1C	inactive: > 76.9 µM
c1ccc(-n2nnnc2-n2cnc3ccccc32)cc1	inactive: > 76.9 µM
O=C(CCn1nc(-c2ccc(Cl)cc2)ccc1=O)NCc1ccccn1	inactive: > 76.9 µM
O=C(c1ccccc1)c1coc2ccc(O)c(Cl)c12	inactive: > 76.9 µM
CN(C)S(=O)(=O)c1cccc(C(=O)OCC(=O)N2c3ccccc3NC(=O)C2(C)C)c1	inactive: > 76.9 µM
CCOC(=O)CSc1nnc(CNC(=O)c2ccc(OC)cc2)n1-c1ccc(OC)cc1	inactive: > 76.9 µM
O=C(O)C1CCCCC1C(=O)NCCCc1ccccc1 (stereo not given)	inactive: > 76.9 µM
Cc1cc(C(F)F)n2nc(C(=O)Nc3ccc(F)cc3F)nc2n1	inactive: > 76.9 µM
COc1ccc(N2CCCn3c2nc2c3c(=O)n(Cc3ccccc3F)c(=O)n2C)c(OC)c1	inactive: > 76.9 µM
CCN(C(=O)COc1cc(=O)n(CC)c2ccccc12)c1cccc(Cl)c1	inactive: > 76.9 µM
Cc1cccc(-n2nnnc2SCc2csc(-c3ccccc3)n2)c1	inactive: > 76.9 µM
Cc1ccc(N2CC(C(N)=O)CC2=O)cc1 (stereo not given)	inactive: > 76.9 µM
COCCNC(=O)c1cnn2c(C(F)(F)F)cc(-c3ccc4c(c3)OCO4)nc12	inactive: > 76.9 µM
CCN(CC(=O)Nc1c(C(=O)OC)[nH]c2ccc(Cl)cc12)c1ccc2c(c1)OCO2	inactive: > 76.9 µM
COc1ccc(S(=O)(=O)N(Cc2cc3ccc(OC)cc3[nH]c2=O)CC2COCCO2)cc1 (stereo not given)	inactive: > 76.9 µM
Cc1c(Cl)cccc1N(CC(=O)N1CCCCCC1)S(C)(=O)=O	inactive: > 76.9 µM
CC1CCN(C(=O)C2CCN(S(=O)(=O)c3cnc[nH]3)CC2)CC1	inactive: > 76.9 µM
CCCNS(=O)(=O)c1ccc(OCC(=O)NCc2ccc3c(c2)OCO3)cc1	inactive: > 76.9 µM
Cc1cc(C)nc(SCC(=O)Nc2ncc3c(n2)CCCC3=O)n1	inactive: > 76.9 µM
CC(=O)N1CCC(O)(c2cccc(C(F)(F)F)c2)CC1	inactive: > 76.9 µM
CC(=O)N1CCc2cc(S(=O)(=O)CCC(=O)NCc3ccc4c(c3)OCO4)ccc21	inactive: > 76.9 µM
CCOC(=O)c1c(C)[nH]c(C(=O)COC(=O)CSCC(=O)N(CC)CC)c1C	inactive: > 76.9 µM

SMILES	Potency
Cc1c(N(C)C)nc2ccccc2c1N	inactive: > 76.9 µM
CN(C)c1nc(OCCOC(=O)c2ccccc2)nc(N(C)C)n1	inactive: > 76.9 µM
COCC(C)NC(=O)c1cc(-c2ccc(OC)c(OC)c2)on1 (stereo not given)	inactive: > 76.9 µM
CCn1nc(NC(=O)c2ccccn2)c2cc3cccc(C)c3nc21	inactive: > 76.9 µM
Cc1oc(-c2cccs2)nc1CS(=O)CC(=O)NCCCOC(C)C (stereo not given)	inactive: > 76.9 µM
COCCOC(=O)c1c(C)oc2ccc(OC(=O)c3c(OC)cccc3OC)cc12	inactive: > 76.9 µM
COc1ccc(C2c3sc(=O)[nH]c3SC3C4CCC(C4)C23)cc1 (stereo not given)	inactive: > 76.9 µM
O=C(CN(Cc1ccccc1C(F)(F)F)C(=O)CNC(=O)c1ccco1)NC1CCCC1	inactive: > 76.9 µM
CCOc1ccc2cc(C#N)c(SCC(=O)OC)nc2c1	inactive: > 76.9 µM
CC(=O)Nc1ccccc1C(=O)N1CC2(C)CC1CC(C)(C)C2 (stereo not given)	inactive: > 76.9 µM
CCC(C)NC(=O)CCNS(=O)(=O)c1ccc(Br)cc1 (stereo not given)	inactive: > 76.9 µM
O=C(O)CSc1nnc(-c2cc3ccccc3o2)n1-c1ccccc1	inactive: > 76.9 µM
COc1ccc(-c2cc(N)n(S(=O)(=O)c3c(F)c(F)c(F)c(F)c3F)n2)cc1OC	inactive: > 76.9 µM
CC(=O)OC(C(=O)NCc1ccco1)c1ccncc1 (stereo not given)	inactive: > 76.9 µM
Cc1ccccc1Cn1ccc(NC(=O)c2nc3ncccn3n2)n1	inactive: > 76.9 µM
C1CCC(n2nnnc2CN2CCCC2)CC1	inactive: > 76.9 µM
CC(=O)c1c(C)[nH]c(C(=O)Nc2c(C)n(C)n(-c3ccccc3)c2=O)c1C	inactive: > 76.9 µM
CCn1c(SCC(=O)Nc2ccccc2C(=O)OC)nnc1-c1ccoc1C	inactive: > 76.9 µM
CCOC(=O)CSc1nc2c(c(=O)[nH]c(=O)n2C)n1CCCc1ccccc1	inactive: > 76.9 µM
CC(CN1CCOCC1)C(=O)O (stereo not given)	inactive: > 76.9 µM
Cc1ccc(OCCn2c(NC(=O)c3ccco3)nc3ccccc32)cc1	inactive: > 76.9 µM
CCC(C)n1[nH]c(=O)c2c(C)cc(C)nc21 (stereo not given)	inactive: > 76.9 µM
CCOc1ccc2cc(C#N)c(SCC(=O)NC(C)CC)nc2c1 (stereo not given)	inactive: > 76.9 µM

SMILES	Potency
CC(=O)O[C@H]1CSC[C@H]1NC(=O)c1ccccc1	inactive: > 76.9 µM
O=C(c1nc2ncccn2n1)N1CCN(c2ccccc2)CC1	inactive: > 76.9 µM
CN(C)CCNc1nc2c(c(=O)[nH]c(=O)n2C)n1CC(O)COc1ccc(Cl)cc1 (stereo not given)	inactive: > 76.9 µM
COCCn1c(C)cc(C(=O)CSc2n[nH]c(N)n2)c1C	inactive: > 76.9 µM
Cc1ccc(C(C(=O)NC2CCCC2)N(Cc2cccs2)C(=O)CNC(=O)c2cccs2)o1 (stereo not given)	inactive
C=CCNC(=O)Nc1ccc(OCC)cc1	inactive: > 76.9 µM
Cc1oc2ccc(OCC(N)=O)cc2c1C(=O)OC(C)C	inactive: > 76.9 µM
COC(=O)[C@H](C)NC(=O)NC1CCCc2ccccc21 (stereo not given in full)	inactive: > 76.9 µM
CC1(C(=O)NC2CCCC2)CCC(=O)N1Cc1cccs1 (stereo not given)	inactive: > 76.9 µM
CN(C)S(=O)(=O)c1cccc(CSc2cccc[n+]2[O-])c1	inactive: > 76.9 µM
CCOC(=O)c1oc2ccc(S(=O)(=O)Nc3ccc4c(c3)n(C)c(=O)n4C)cc2c1C	inactive: > 76.9 µM
COc1ccc(NS(=O)(=O)c2cc(C)ccc2OC)cc1OC	inactive: > 76.9 µM
CCOc1ccccc1NC(=O)COc1cccc(-n2cnnn2)c1	inactive: > 76.9 µM
C=C1C(C(=O)N2CCN(C)CC2)C1C(=O)N1CCN(C)CC1 (stereo not given)	inactive: > 76.9 µM
Cc1ccc2[nH]c3c(=O)n(CCN4CCNCC4)cnc3c2c1	inactive: > 15.4 µM
CC1CCCCN1c1nc(-c2ccncc2)nc2ccccc12 (stereo not given)	inactive
COc1ccccc1N(CN1CCCC1=O)C(=O)COc1ccccc1	inactive: > 76.9 µM
CCOc1cc(C(=O)Nc2ccc(S(=O)(=O)Nc3cc(C)on3)cc2)cc(OCC)c1OCC	inactive: > 76.9 µM
CCOC(=O)C1CCN(Cc2ccc(F)cc2)CC1	inactive: > 76.9 µM
CCOC(=O)CCCNC(=O)COc1ccccc1C#N	inactive
CC(C)CCNC(=O)CCn1nc(-c2ccccc2)ccc1=O	inactive: > 76.9 µM
O=C(NC1CCCCC1)c1ccc(CNc2ccccc2)o1	inactive
COc1ccccc1N1C(=O)CC(Sc2nccc(C)n2)C1=O (stereo not given)	inactive: > 76.9 µM

SMILES	Potency
CC1=C(C(=O)Nc2ccccc2C)C(c2ccc(C)o2)N2C(=O)CSC2=N1 (stereo not given)	inactive: > 76.9 µM
CCOC(=O)c1ccc(NC(=O)N2CCN(CCc3ccccc3)CC2)cc1	inactive: > 76.9 µM
COCCNC(=O)CN1c2ccccc2CC1C (stereo not given)	inactive: > 76.9 µM
CCOC(=O)C1=C(CN2CCC(C)CC2)NC(=O)NC1c1ccc(Cl)cc1 (stereo not given)	inactive: > 76.9 µM
CC(C)C(C(=O)OCC(=O)c1ccc2c(c1)NC(=O)CO2)N1C(=O)c2ccccc2C1=O (stereo not given)	inactive: > 76.9 µM
CCCC(=O)Nc1sc(C(=O)OC)c(C)c1C(N)=O	inactive: > 76.9 µM
CCOC(=O)N1CCC(NC(=O)C(Cc2ccccc2)NC(=O)C2CCCCC2)CC1 (stereo not given)	inactive: > 76.9 µM
O=C(Nc1ccccc1Cl)NC1(C(=O)NCCCN2CCOCC2)CCCCC1	inactive: > 76.9 µM
CC(C)CN(C(=O)COC(=O)CCN1C(=O)c2ccccc2C1=O)C1CCS(=O)(=O)C1 (stereo not given)	inactive: > 76.9 µM
Cc1c(NC(=O)c2ccc(Cl)c(S(=O)(=O)N3CCOCC3)c2)c(=O)n(-c2ccccc2)n1C	inactive: > 76.9 µM
NS(=O)(=O)c1ccc(NC(=O)CN2CCN(Cc3ccccc3)CC2)cc1	inactive: > 76.9 µM
Cc1cc(N2CCN(C)CC2)nc2ccc(NC(=O)c3ccc4c(c3)OCO4)cc12	active: 1.06 µM
Cn1c(=O)[nH]c(=O)c2c1nc(NCc1ccccc1)n2CC(O)c1ccccc1 (stereo not given)	inactive: > 76.9 µM
CC(=O)Nc1ccc(NC(=O)Cn2cc3c(n2)CCC(C)C3)cc1 (stereo not given)	inactive: > 76.9 µM
Cc1cc(C#N)c(C)n1-c1cc(C(F)(F)F)ccc1N1CCOCC1	inactive
CN1CCN(CCc2nc3cc(NC(=O)COc4ccccc4)ccc3n2C)CC1	inactive: > 76.9 µM
O=c1[nH]c2ccc(Cl)cc2c(-c2ccccc2)c1CN1CCOCC1	inactive: > 76.9 µM
CN(C)S(=O)(=O)c1ccc(C(=O)Nc2ccccc2OC(F)(F)C(F)F)cc1	inactive: > 76.9 µM
O=C(O)c1cccc(N2CCCCS2(=O)=O)c1	inactive: > 76.9 µM
CC1(C(=O)N(CC(=O)NC2CCCC2)Cc2ccco2)CC(=O)N=C2C=CC=CN21 (stereo not given)	inactive: > 76.9 µM
COc1ccc(CC(=O)NCc2cccs2)cc1	inactive: > 76.9 µM
